Reference: PubChem BioAssay AID248 (DTP/NCI, 2004)
Inconclusive results and toxic doses are left out. Some entries of the source have several records that differ or are many. The list is limited to them. The source may hold further records. The values listed for one entry are repeated measurements (runs, samples, wells, individuals or studies). Records carry a tag for their origin. A, B and so on number the origins entry by entry.

System: L1210 leukemia ip in BDF1 mice, survival T/C
Test: NCI In Vivo Anticancer Drug Screen. Data for tumor model L1210 Leukemia (intraperitoneal) in B6D2F1 (BDF1) mice
Conditions: endpoint: mean survival time, higher = longer survival

O=C(OCC1OC(n2c(=O)[nH]cc(F)c2=O)C(OC(=O)c2ccccc2)C1OC(=O)c1ccccc1)c1ccccc1 (centres undefined)
T/C (dose: 40.0 mg/kg/injection, schedule: Q01DX005 (ip), vehicle: Klucel (hydroxypropylcellulose) (HPC)): 121 % of control and 173 % of control

O=C1CN(C(=O)CN2C(=O)c3ccccc3C2=O)C2(CCCCC2)O1
T/C (dose: 100.0 mg/kg/injection, schedule: Q04DX003 (ip), vehicle: saline sonified): 94 % of control and 173 % of control

C[OH+]c1ccccc1C(=O)O.C[OH+]c1ccccc1C(=O)O.[Ni]
T/C (dose: 100.0 mg/kg/injection, schedule: Q04DX002 (ip), vehicle: saline with Tween-80): 101 % of control, 103 % of control, 174 % of control

C[n+]1ccc(Nc2ccc(NC(=O)c3ccc(Nc4cc[n+](C)c5ccc([N+](=O)[O-])cc45)cc3[N+](=O)[O-])cc2)cc1
T/C (dose: 100.0 mg/kg/injection, schedule: Q04DX003 (ip), vehicle: suspension in saline): 123 % of control and 150 % of control

CC(CN1CC(=O)NC(=O)C1)N1CC(=O)NC(=O)C1.[Cl-].[Pt+4] (centres undefined)
T/C (dose: 12.5 mg/kg/injection, schedule: Q01DX009 (ip), vehicle: saline): 115 % of control and 152 % of control

CS(=O)(=O)OCOS(C)(=O)=O
T/C (dose: 50.0 mg/kg/injection, schedule: Q01DX009 (ip), vehicle: saline): 100 % of control and 156 % of control

CC(=N\N=C(N)N)/C(N=Nc1ccc(S(N)(=O)=O)cc1)=N\N=C(N)N
T/C (dose: 240.0 mg/kg/injection, schedule: Q01DX Z (oral), vehicle: carboxymethylcellulose (CMC)): 102 % of control and 157 % of control

CCSc1nc(Cl)cc(Sc2nc(N)nc3nc[nH]c23)n1
T/C (dose: 150.0 mg/kg/injection, schedule: Q01DX001 (ip), vehicle: saline): 119 % of control and 163 % of control

O=NN(CCF)C(=O)NC1CCS(=O)(=O)CC1
T/C (dose: 8.0 mg/kg/injection, schedule: Q## X032 (ip), vehicle: other): 123 % of control and 371 % of control

CN(N=O)C(=O)NC(C=O)C(O)C(O)C(O)CO (centres undefined)
T/C (dose: 13.0 mg/kg/injection, schedule: Q#A X Z (ip), vehicle: saline): 120 % of control and 164 % of control
T/C (dose: 100.0 mg/kg/injection, schedule: Q01DX Z (ip), vehicle: saline): 92 % of control, 106 % of control, 155 % of control

CC1CN1P(=O)(OCCC#N)N1CC1C (centres undefined)
T/C (dose: 200.0 mg/kg/injection, schedule: Q04DX003 (ip), vehicle: acetone): 123 % of control and 156 % of control

CC[n+]1ccccc1-c1ccc(NC(=O)c2ccc(C(=O)Nc3ccc(-c4ccccn4)cc3)cc2)cc1
T/C (dose: 10.0 mg/kg/injection, schedule: Q01DX001 (ip), vehicle: saline): 124 % of control and 155 % of control

Nc1nc(=S)c2ncn(C3CC(O)C(CO)O3)c2[nH]1 (centres undefined)
T/C (dose: 25.0 mg/kg/injection, schedule: Q01DX005 (ip), vehicle: saline): 114 % of control [sample A] and 159 % of control [sample B]
